Test results from PubChem BioAssay AID504845 (National Center for Advancing Translational Sciences (NCATS), 2011).
Hit rate of the full screen: of about 390,000 compounds, about 150 (0.038%) were called active. Inconclusive means that the source gave no clear call. Such entries were picked first, then a sample of the others. Calls follow the shape of the dose curve; as a rule, active = well fitted inhibition curve with a large enough effect; inconclusive = small, poorly fitted or top-dose-only effect; inactive = no such curve, though single readings can be large or run the other way. Potencies of inconclusive entries are doubtful fits and often do not repeat.

biological target: Regulator of G-protein signaling 4 (Homo sapiens) (UniProt P49798); experiment: Inhibitors of Regulator of G Protein Signaling (RGS) 4: qHTS; settings: Transcreener GDP fluorescence polarization, RGS4-accelerated GTP hydrolysis; series mostly up to 114 µM; activity change, negative = inhibition: at the top concentration; also: nearly all actives have a fitted effect of over 75% in size
Sequence of UniProt P49798 (P49798 whole entry, looked up, the tested form may be a part): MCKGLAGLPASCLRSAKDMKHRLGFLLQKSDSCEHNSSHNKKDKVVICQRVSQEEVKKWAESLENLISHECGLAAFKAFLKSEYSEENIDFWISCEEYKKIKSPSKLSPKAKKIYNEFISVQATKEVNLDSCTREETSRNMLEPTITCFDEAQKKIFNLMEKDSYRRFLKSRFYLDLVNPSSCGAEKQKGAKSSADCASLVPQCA
Source text: G-protein-coupled receptors (GPCRs) are well-established targets for drug discovery and development. Members of the "regulator of G-protein signaling" (RGS)-protein superfamily have recently emerged as critical modulators of specific GPCR signaling pathways. […] Combining specific RGS domain inhibitors with existing GPCR agonists should potentiate cellular responses and could also increase the specificity of action of existing therapeutics. Small molecule modulators of RGS domain activity should also have clinical utility in inhibiting or potentiating the actions of endogenous GPCR agonists. In particular, the diversity of RGS proteins with highly localized and dynamically regulated distributions in the human brain makes this family of proteins attractive targets for pharmacotherapy of central nervous system (CNS) disorders such as Parkinson's disease, schizophrenia, and anxiety.
This assay was used to screen the NIH Molecular Libraries Small Molecule Repository (MLSMR) in order to identify a small molecule that inhibits RGS4.
NIH Chemical Genomics Center [NCGC]
NIH Molecular Libraries Probe Centers Network [MLPCN]
Assay Submitter (PI): David Siderovski, University of North Carolina Chapel Hill (School of Medicine)
Two microliters of 500nM (2x working concentration) is dispensed into black medium-binding solid-bottom Kalypsys plates. Then with the Kalypsys pintool 23nl of control and compounds are transferred; the control compound is […] CCG-4986 (working concentration). After a 10 minute incubation at room temperature 2ul of antibody is added with the Kalypsys dispenser; (-)RGS4/Transcreener GDP solution in columns 3 and 4 which consisted of 10nM (2x working concentration) Alexa633, 20uM GTP, and 20 ug/ml GDP antibody and (+)RGS4/Transcreener GDP solution in columns 1,2, and 5 to 48 which consists of 900nM RGS4 (2x working concentration), 10nM Alexa633, 20 ug/ml GDP antibody. The plate is centrifuged at 1000 RPM for 15 seconds to remove any possible bubbles and then incubated for 5 minutes at ambient room temperature. An initial fluorescent polarization read (620 nm/688 nm) is performed on the Envision before the plate is incubated for 90 minutes at 30 deg C at a relative humidity of 80%. The plate is once more centrifuged at 1000 RPM for 15 seconds and another Envision fluorescent polarization (620 nm/688 nm) read is carried out.
% is scaled to controls: 0 for no effect and ±100 for the full control effect; potency is read from the fitted curve at half-maximal effect; tags tell the direction and shape of the fitted curve.

Row | SMILES | Potency | activity change, negative = inhibition
1 | CC(=O)NC1C(OCc2ccccc2)OC2COC(c3ccccc3)OC2C1OCC(=O)O (configuration not stated) | inconclusive: 70.8 µM [inhibitor, partial curve, poor fit] | –
2 | Cc1cccc(Cn2c(NCC(C)O)nc3c2c(=O)n(C)c(=O)n3C)c1 (configuration not stated) | inconclusive: 89.1 µM [inhibitor, single point] | –
3 | C#CCOc1ccccc1CNC1CCN(Cc2ccccc2)CC1 | – | inactive: -16.4%
4 | Cc1nn2c(=O)cc(COC(=O)COc3ccccc3C)nc2s1 | – | inactive: -27.1%
5 | O=C(Nc1ccc2nc(-c3ccco3)c(-c3ccco3)nc2c1)NC1CC1 | inconclusive: 20 µM [inhibitor, full curve, poor fit] | –
6 | CCCCn1c(SCC(=O)Nc2ccc(NC(C)=O)cc2)nc2ccccc2c1=O | – | inactive: 27.2%
7 | COc1ccc(NC(=O)c2nc(S(=O)(=O)Cc3ccc(C)cc3)ncc2Cl)cc1 | inconclusive: 35.5 µM [inhibitor, full curve, poor fit] | –
8 | Oc1cccc(C(=S)N2CCC(Cc3ccccc3)CC2)c1 | inconclusive: 100 µM [inhibitor, partial curve, poor fit] | –
9 | CC(=O)Nc1ccc(NC(=O)c2ccccc2N(C)S(=O)(=O)c2ccccc2)cc1 | inconclusive: 70.8 µM [inhibitor, single point] | –
10 | O=C(N/C(=C/c1ccc(Br)cc1)C(=O)N1CCCCC1)c1ccccc1F | – | inactive: -9.85%
11 | CCc1cc2c(Sc3nc4ccccc4s3)ncnc2s1 | – | inactive: -16.3%
12 | FC(F)(F)c1cnc(-n2cc[nH]c2=S)c(Cl)c1 | inconclusive: 50.1 µM [inhibitor, partial curve, poor fit] | –
13 | O=C(Nc1ccc(F)cc1Cl)c1ccc2c(=O)n3c(nc2c1)CCC3 | – | inactive: -21.7%
14 | CCOc1ccc(-c2c(=O)n(O)c3ccccc3[n+]2[O-])cc1 | inconclusive: 79.4 µM [inhibitor, partial curve, poor fit] | –
15 | O=C(NNC(=S)Nc1ccc(Br)cc1)c1ccc(N2CCOCC2)c([N+](=O)[O-])c1 | inconclusive: 79.4 µM [inhibitor, partial curve, poor fit] | –
16 | CCNC(=O)CC1S/C(=N/N=C(\C)c2ccccc2)NC1=O (configuration not stated) | inconclusive: 79.4 µM [inhibitor, partial curve, poor fit] | –
17 | CCOc1ccc(NC(=S)NNC(=S)Nc2cccc(C(F)(F)F)c2)cc1 | inconclusive: 50.1 µM [inhibitor, partial curve, poor fit] | –
18 | COc1ccc(C(C)=O)cc1CSc1nc2cc(C(=O)O)ccc2c(=O)n1Cc1ccccc1 | inconclusive: 100 µM [inhibitor, single point] | –
19 | CN1CCC(=NNC(=O)CN(c2cccc(Cl)c2)S(C)(=O)=O)CC1 | inconclusive: 89.1 µM [inhibitor, single point] | –
20 | C#CCOCCOCCOCCNc1nc(N2CCN(C(=O)CCCCCCCCCCNC(=O)Cn3cc(C[C@@H](C)O)nn3)CC2)nc(N2CCN(C(=O)CCCCCCCCCCNC(=O)[C@H](CCCCN)n3cc(C[C@@H](C)CC)nn3)CC2)n1 | inconclusive: 44.7 µM [inhibitor, partial curve, poor fit] | –
21 | CCNC(=O)CSc1nnc(-c2cccc(S(=O)(=O)N(CC)CC)c2)n1CCc1ccccc1 | inconclusive: 50.1 µM [inhibitor, partial curve, poor fit] | –
22 | Oc1c(C=Nc2cccc3nsnc23)ccc2ccccc12 | inconclusive: 89.1 µM [inhibitor, partial curve, poor fit] | –
23 | O=C(O)CN(CC(=O)O)CC(=O)O | – | inactive: -18.4%

Row | SMILES | Potency | activity change, negative = inhibition
24 | NC(=O)c1cc[n+](CC2=C(C(=O)O)N3C(=O)[C@@H](NC(=O)[C@@H](c4ccccc4)S(=O)(=O)[O-])[C@H]3SC2)cc1 | inconclusive: 15 µM [inhibitor, partial curve, poor fit] | –
25 | COc1cccc(-c2nn(C)c3sc(C(=O)NCc4ccco4)cc23)c1 | inconclusive: 89.1 µM [inhibitor, single point] | –
26 | Cc1ccccc1NC(=O)CNc1ccccc1C(=O)NCc1ccco1 | inconclusive: 89.1 µM [inhibitor, single point] | –
27 | CCN(CC)c1nc(-c2ccccc2)nc2c1sc(=S)n2CC | inconclusive: 100 µM [inhibitor, single point] | –
28 | O=C(O)c1ccc(COc2ccccc2C=C2C(=O)c3ccccc3C2=O)cc1 | inconclusive: 39.8 µM [inhibitor, full curve, poor fit] | –
29 | CN(C(=S)Nc1cccnc1)c1ccc(O)cc1 | inconclusive: 44.7 µM [inhibitor, partial curve, poor fit] | –
30 | O=C(NC(=S)Nc1ccc(Cl)c(C(=O)O)c1)c1ccc(OCc2ccccc2)cc1 | inconclusive: 50.1 µM [inhibitor, partial curve, poor fit] | –
31 | COc1ccc(C(C(=O)NCC2CCCO2)N(C(=O)CNC(=O)c2cccs2)c2ccc(NC(C)=O)cc2)cc1OC (configuration not stated) | inconclusive: 50.1 µM [inhibitor, partial curve, poor fit] | –
32 | O=C(Nc1ccccn1)c1ccc2ccccc2c1O | inconclusive: 112 µM [inhibitor, partial curve, poor fit] | –
33 | O=C(C1COc2ccccc2O1)N1CCCC1 (configuration not stated) | – | inactive: -12.4%
34 | CCN(CC)c1ccc2cc(-c3nc(-c4ccccc4F)no3)c(=O)oc2c1 | – | inactive: -8.8%
35 | OCCC1CN(Cc2ccccc2O)CCN1CCCc1ccccc1 (configuration not stated) | – | inactive: 13.1%
36 | COc1ccc(CN/C(C)=C(/C#N)C(N)=O)cc1OC | inconclusive: 70.8 µM [inhibitor, single point] | –
37 | COc1cc(NC(=O)NCCN2CCN(c3ccccc3)CC2)cc(OC)c1OC | inactive | –
38 | CC(C)/C=N/NC(=O)c1ccc(Cl)cc1 | inconclusive: 31.6 µM [inhibitor, partial curve, poor fit] | –
39 | CCCOC(=O)Nc1nc2ccccc2o1 | – | inactive: 23.4%
40 | O=C(OCc1ccccc1)N(CCF)c1cn(Cc2ccccc2)c(=O)n(Cc2ccccc2)c1=O | – | inactive: -3.78%
41 | Cc1ccc(OCC(=O)Nc2ccc3nc(SCCOc4ccccc4)sc3c2)cc1 | – | inactive: 22.8%
42 | Oc1ccc(C2Nc3cccc4cccc(c34)N2)c(O)c1 | inconclusive: 89.1 µM [inhibitor, partial curve, poor fit] | –
43 | COc1cccc(C(=O)N2CCN(Cc3cc(Br)ccc3OC)CC2)c1 | inconclusive: 100 µM [inhibitor, single point] | –
44 | COc1ccc(NC(=O)C(C)Sc2ccccc2)cc1 (configuration not stated) | inconclusive: 79.4 µM [inhibitor, single point] | –
45 | Cc1ccc(-n2nc(-c3ccccc3)cc2Nc2ccccc2N)cc1 | inconclusive: 89.1 µM [inhibitor, partial curve, poor fit] | –
46 | O=C(c1ccc2c(=O)n(Cc3ccccc3Cl)c(=S)[nH]c2c1)N1CCOCC1 | – | inactive: 26.1%

Row | SMILES | Potency | activity change, negative = inhibition
47 | COC(=O)c1sc(NC(=O)c2cc(C)on2)nc1C | – | inactive: 31.2%
48 | O=C(Nc1ccc2c(c1)OCO2)c1cccc(Cl)c1 | – | inactive: -13.6%
49 | COc1ccc(C(=O)COC(=O)c2cc3ccccc3oc2=O)c(OC)c1 | inconclusive: 50.1 µM [inhibitor, partial curve, poor fit] | –
50 | CC(=O)Nc1ccc2nc(-c3ccc(Br)o3)[nH]c2c1 | inconclusive: 50.1 µM [inhibitor, partial curve, poor fit] | –
51 | S=c1[nH]cnc2sc(Nc3ccccc3)nc12 | inconclusive: 22.4 µM [inhibitor, full curve, poor fit] | –
52 | COc1ccc(Cl)cc1NC(=O)c1cc2c(=O)n3ccccc3nc2s1 | inconclusive: 100 µM [inhibitor, single point] | –
53 | OCCC1CN(Cc2nc(-c3ccccc3)cs2)CCN1Cc1ccc(F)cc1 (configuration not stated) | – | inactive: -11%
54 | Cc1ccc(Nc2nc(NCc3ccco3)c3ccccc3n2)cc1 | – | inactive: -22.5%
55 | O=[N+]([O-])c1cc(S(=O)(=O)Nc2ccccc2)ccc1N1CCN(c2ccccc2)CC1 | – | inactive: 23%
56 | CN(c1ccccc1)S(=O)(=O)c1ccc(NC(=O)c2nc(S(C)(=O)=O)ncc2Cl)cc1 | inconclusive: 50.1 µM [inhibitor, partial curve, poor fit] | –
57 | OCCCNC(=S)Nc1ccc2nccnc2c1 | inconclusive: 31.6 µM [inhibitor, full curve, poor fit] | –
58 | NC(=O)NOCc1ccc(Cl)cc1Cl | inconclusive: 70.8 µM [inhibitor, partial curve, poor fit] | –
59 | COc1ccc2[nH]c(=O)c(C(c3nnnn3CC3CCCO3)N3CCc4ccccc4C3)cc2c1 (configuration not stated) | – | inactive: 4.31%
60 | CCc1ccc(-c2c(C)sc(NC(C)=O)c2C(N)=O)cc1 | inconclusive: 50.1 µM [inhibitor, partial curve, poor fit] | –
61 | COc1ccccc1/C=C/C(=O)Oc1cccc2cccnc12 | – | inactive: 3.85%
62 | Cc1ccc(C(=O)C2=C(O)C(=O)N(Cc3ccco3)C2c2cccc(Cl)c2)o1 (configuration not stated) | inconclusive: 89.1 µM [inhibitor, partial curve, poor fit] | –
63 | O=C(O)c1ccccc1-c1ccccc1C(=O)Nc1cccc(O)c1 | inconclusive: 17.8 µM [inhibitor, full curve, poor fit] | –
64 | c1ccc(-c2cnnc(-c3ccccn3)n2)cc1 | – | inactive: -7.35%
65 | CN(C)c1ccc(C2CC(c3cccc(NS(C)(=O)=O)c3)=NN2C(=O)c2ccccc2)cc1 (configuration not stated) | inconclusive: 50.1 µM [inhibitor, partial curve, poor fit] | –
66 | O=C(Nc1cccc(S(=O)(=O)Nc2ccccc2F)c1)c1ccc2ccccc2n1 | inconclusive: 79.4 µM [inhibitor, partial curve, poor fit] | –
67 | COc1cccc(N2CC(C(=O)Nc3nnc(SCC(=O)NC4CCCC4)s3)CC2=O)c1 (configuration not stated) | inconclusive: 50.1 µM [inhibitor, partial curve, poor fit] | –
